Laboratory results: PubChem BioAssay AID463173 (ICCB-Longwood Screening Facility, Harvard Medical School, 2010)
The whole screen tested about 52,000 compounds, of which about 4,300 (8.3%) were called active. No stated cut-off is given here; in the data, active means survival mostly below about 52% (no sharp cut-off); inactive means mostly above about 56%. This is one part of the list.

Each compound was assayed on DeltatarO mutant (assay: growth inhibition of S. aureus wild type versus tarO mutant, primary screen, teichoic acid synthesis inhibitors, RN4220, OD600 (AID 463173)). Settings: OD600, 18 h, active compounds read low, screened at 18.75 µg/mL (by protocol).
With `Cc1ccc(CNC(=O)c2ccc3c(O)c(S(=O)(=O)c4ccc(Cl)cc4)c(=O)[nH]c3c2)cc1` the survival was inactive: 84%. With `CCOC(=O)c1c(S(=O)(=O)N2CCCC(C(=O)NCc3ccccc3OC)C2)c(C)n(C)c1C` (stereo unspecified) the survival was inactive: 82%. With `CCc1nc(SC)ncc1C(=O)N1CCN(c2cc(C)ccc2C)CC1` the survival was inactive: 87%. In the case of `Cc1ccc(NC(=O)c2ccc(=O)n(Cc3ccccc3C)c2)c(C)c1`, the survival is reported as inactive: 71%. In the case of `Cc1ccc(CN2CCCn3nc(C(=O)NCCc4cccc(C)c4)cc3C2=O)cc1`, the survival is reported as inactive: 83%. `CCCCN(CC)CCCNC(=O)Cn1ncc2c3ccccc3n(Cc3ccc(F)cc3)c2c1=O` was tested, and the survival was inactive: 96%. With `O=C(Nc1ccc2nc(-c3ccccc3)[nH]c2c1)c1ccco1` the survival was active: 1%. With `Cn1c(=O)c(=O)n(C)c2cc(S(=O)(=O)N3CCN(c4ccccc4)CC3)ccc21` the survival was inactive: 92%. In the case of `CC(NC(=O)c1ccc2c(c1)sc1nc(-c3ccccc3)cn12)C12CC3CC(CC(C3)C1)C2` (stereo unspecified), the survival is reported as inactive: 73%. In the case of `COc1ccc(C)cc1NC(=O)c1cc(S(=O)(=O)N2CCN(c3cccc(C)c3C)CC2)ccc1F`, the survival is reported as inactive: 107%. For `Clc1ccc(Nc2c(-c3ccccc3Cl)nc3ccc(Cl)cn23)cc1`, the survival was inactive: 45%. `Cc1nc(NCCCCCO)c2nnn(Cc3ccc(F)cc3)c2n1` was tested, and the survival was inactive: 91%. `Cc1ccc(C(=O)Nc2cccc(C(=O)OCc3cc(=O)n4nc(C5CC5)sc4n3)c2)cc1` was tested, and the survival was inactive: 81%. In the case of `O=C(CNC(=O)c1cccs1)c1ccc(F)cc1`, the survival is reported as inactive: 77%. In the case of `CCCOc1ccc(C2CC(=O)Nc3c2c(=O)n(C)c(=O)n3C)cc1OC` (stereo unspecified), the survival is reported as inactive: 104%. In the case of `COCC(C)Nc1ncnc2c1cnn2-c1ccc(C)c(C)c1` (stereo unspecified), the survival is reported as inactive: 80%. `COc1ccc(-n2nc(C(=O)NCc3ccc(F)cc3Cl)c3c4ccccc4n(C)c3c2=O)cc1Cl` was tested, and the survival was inactive: 93%. In the case of `CCOc1ccc(N2CC(NC(=O)C3CC3)CC2=O)cc1` (stereo unspecified), the survival is reported as inactive: 80%. With `O=S(=O)(NC1CC2CCC1C2)c1ccc2c(c1)OCCO2` (stereo unspecified) the survival was inactive: 78%. For `NC(Cc1ccc2nonc2c1)C(=O)O` (stereo unspecified), the survival was inactive: 100%. In the case of `COCCNC(=O)CN1C(=O)c2cccnc2Oc2ccc(Cl)cc21`, the survival is reported as inactive: 85%. For `CCOc1ccc(NC(=O)N2CCN3CCCCC3C2)cc1` (stereo unspecified), the survival was inactive: 95%. With `CCOC(=O)c1ccc(N2C(=O)c3n[nH]c(-c4ccco4)c3C2c2cccc(O)c2)cc1` (stereo unspecified) the survival was active: -8%. For `COc1ccc(S(=O)(=O)NCc2nc3nc(C)cc(C)n3n2)cc1OC`, the survival was inactive: 85%. In the case of `COc1ccc(Nc2c3c(nc4nncn24)CCC3)cc1OC`, the survival is reported as inactive: 70%. With `Cc1ccc(Nc2ncccc2C(=O)NC2CCCCC2)cc1` the survival was inactive: 82%.
